# Data as given in PubChem BioAssay AID504832 (National Center for Advancing Translational Sciences (NCATS), 2011).
# Values joined by “and” are separate entries in the source; they are usually repeats but may differ in a detail not shown here. Equal values may be shown once. Hit rate of the full screen: of about 310,000 compounds, about 18,000 (5.8%) were called active. Inconclusive results, whose numbers are uncertain, are shown with a selection of clear calls. The call rests on the fitted dose curve; in most records, active means well fitted inhibition curve with a large enough effect; inconclusive means small, poorly fitted or top-dose-only effect, or another doubt; inactive means no such curve, though single readings can be large or run the other way. Potencies beside an inconclusive call are fits to weak or partial responses and may not hold up.
# Experiment: Primary qHTS for delayed death inhibitors of the malarial parasite plastid, 48 hour incubation
# Settings: P. falciparum luciferase growth in erythrocytes; series mostly up to 28.7 µM
# In short: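 Here the parasites carry a stable luciferase gene and grow inside erythrocytes in Albumax-based RPMI medium with compound for one erythrocytic cycle. Activity is scored as loss of luminescent signal.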
# Potency means the concentration at half of the fitted maximal effect; tags describe the fitted curve by direction and shape.
row,SMILES,Potency
1,Cc1noc(C)c1COc1ccccc1C(=O)Nc1cccc(S(=O)(=O)N(C)C)c1,"inconclusive: 10.4 µM [inhibitor, single point]"
2,COc1ccc(-c2c(C)nn3c(NC4CCCC4)cc(C)nc23)cc1OC,"inconclusive: 5.86 µM [inhibitor, partial curve]"
3,Cc1cccc(Nc2cc(=O)n(C)c(=O)[nH]2)c1,inactive
4,COc1ccc(OC)c(N/C=C/C(=O)c2ccc(OC)c(OC)c2)c1,"inconclusive: 0.522 µM [inhibitor, full curve, poor fit]"
5,Cc1ccc(C(=O)NC(=S)Nc2ccccc2C(F)(F)F)cc1C,"inconclusive: 0.522 µM [inhibitor, full curve, poor fit]"
6,CCOC(=O)c1[nH]c(C)c(C(=O)N2CCc3ccccc32)c1C,"inconclusive: 18.5 µM [inhibitor, partial curve, poor fit]"
7,CSc1ccc(CN(C)C(=O)C23CC4CC(CC(Cl)(C4)C2)C3)cc1,"inconclusive: 10.4 µM [inhibitor, single point]"
8,CCCCn1nnnc1SCC(=O)c1ccccc1F,"inconclusive: 18.5 µM [inhibitor, single point]"
9,O=c1nc2ccc(Cl)cn2c2ccc(S(=O)(=O)N3CCCCC3)cc12,"inconclusive: 11.7 µM [inhibitor, single point]"
10,N#Cc1c(/N=C/c2ccccc2)oc(-c2ccccc2)c1-c1ccccc1,"inconclusive: 14.7 µM [inhibitor, single point]"
11,O=C(c1cc(-c2cccs2)on1)N1CCc2ccccc2C1,"inconclusive: 18.5 µM [inhibitor, single point]"
12,CC1(C(O)(C#CCN2CCCCC2)c2ccccc2)CCCC1 (configuration not stated),"inconclusive: 11.7 µM [inhibitor, partial curve, poor fit]"
13,O=C(Nc1ccc(N2CCOCC2)c(S(=O)(=O)Nc2ccccc2Cl)c1)c1ccccc1,active: 10.4 µM
14,CCCCCCSc1cc(-c2nc3ccc(Cl)cn3c2NCCCC)ccc1OC,"inconclusive: 18.5 µM [inhibitor, single point]"
15,CCCNS(=O)(=O)c1cc(Br)cc2c1N(C(=O)CC)CC2,"inconclusive: 9.28 µM [inhibitor, partial curve]"
16,Cc1ccc(NC(=O)CCSc2nnc(C)s2)cc1,inactive
17,O=C(Nc1ncc2c(n1)CC(c1ccco1)CC2=O)c1ccccc1 (configuration not stated),inactive
18,COCCCNC(=O)CSC1=Nc2ccccc2C2=NC(c3ccccc3)C(=O)N12 (configuration not stated),inactive
19,Cc1cccc(CN2C(=O)/C(=C\c3ccc(C(=O)NCCN4CCOCC4)cc3)Sc3ccccc32)c1,"inconclusive: 13.1 µM [inhibitor, single point]"
20,CCS(=O)(=O)Nc1ccc(C2=NN(C(=O)c3ccco3)C(c3ccc(C)cc3)C2)cc1 (configuration not stated),active: 10.4 µM
21,COc1ccc(S(=O)(=O)N2CCOC23CCN(S(=O)(=O)c2cc(C)ccc2OC)CC3)cc1,"inconclusive: 6.57 µM [inhibitor, partial curve, poor fit]"
22,C[N+]1(C)[C@@H]2CC[C@H]1CC(OC(=O)C(c1ccccc1)c1ccccc1)C2 (some centres not stated),active: 2.33 µM
23,COCc1c(C(=O)N2CCN(Cc3ccc4c(c3)OCO4)CC2)oc2ccccc12,"inconclusive: 18.5 µM [inhibitor, single point]"

row,SMILES,Potency
1,CC1(C)Cc2c(C#N)c(NCCO)nc(-c3ccco3)c2CO1,"inconclusive: 11.7 µM [inhibitor, single point]"
2,Cc1nn(C)c(Nc2ccc(Br)cc2)c1Br,"inconclusive: 18.5 µM [inhibitor, single point]"
3,CCCCc1nc2ccccc2n1Cc1nnc2n1-c1ccccc1SC2,"inconclusive: 11.7 µM [inhibitor, single point]"
4,COc1ccc(CN2C(=O)c3ccccc3C(/C=N\OCc3ccc(C)cc3)C2=O)cc1 (configuration not stated),"inconclusive: 9.28 µM [inhibitor, single point]"
5,Clc1ccc(-c2nnc(CSc3nnc(-c4cccs4)n3Cc3ccccc3)o2)cc1,"inconclusive: 18.5 µM [inhibitor, single point]"
6,COC(=O)c1ccc(NC(=O)CN(c2ccc3c(c2)OCO3)S(C)(=O)=O)cc1,inactive
7,CCc1ccc(-c2cc(C)no2)cc1S(=O)(=O)N1CCN(c2ccc(C(C)=O)cc2)CC1,"inconclusive: 9.28 µM [inhibitor, partial curve]"
8,CCOc1cc2c(cc1OCC)CN(C(=O)c1cccc(S(=O)(=O)N3CCCC3)c1)CC2,"inconclusive: 10.4 µM [inhibitor, single point]"
9,Cc1ccc(S(=O)(=O)N2CCCC2CNC(=O)C(=O)Nc2ccc(F)cc2)cc1 (configuration not stated),"inconclusive: 11.7 µM [inhibitor, single point]"
10,[O-][n+]1c2ccccc2cc2ccccc21,active: 2.62 µM
11,COc1ccc(CN(C)CC2CCCN(CCc3ccc(Cl)cc3)C2)cc1OC (configuration not stated),"inconclusive: 7.38 µM [inhibitor, partial curve, poor fit]"
12,Cc1ccccc1[N+](=O)[O-],inactive
13,CCOC(=O)c1c(C)[nH]c(C(=O)COC(=O)Cn2cc(C(F)(F)F)ccc2=O)c1C,inactive
14,COc1ccccc1C(=O)NCCC(=O)Nc1ccc(S(=O)(=O)N2CCC(C)CC2)cc1,"inconclusive: 13.1 µM [inhibitor, partial curve, poor fit]"
15,Cc1c(Cl)cccc1N=C1SCCN1C(=O)CN1C(=O)NC2(CCCC2)C1=O,"inconclusive: 14.7 µM [inhibitor, single point]"
16,CCCC/C(C)=C/[C@@H](NP(=O)(c1ccccc1)c1ccccc1)c1ccccc1,"inconclusive: 0.37 µM [inhibitor, full curve, poor fit]"
17,COc1cc(OC)cc(C(=O)N2CCN(C(=O)c3ccc(OC)c(OC)c3)CC2)c1,inactive
18,COc1ccc(-c2nc(CS(=O)(=O)CC(=O)NCCc3ccccc3)c(C)o2)cc1,inactive
19,O=S(=O)(c1cc(-c2nnc(-c3ccc(Br)cc3)o2)ccc1Br)N1CCCCCC1,"inconclusive: 18.5 µM [inhibitor, single point]"
20,COc1ccc2sc(N3C(=O)C4CC=C(C)CC4C3=O)nc2c1 (configuration not stated),"inconclusive: 11.7 µM [inhibitor, single point]"
21,Cc1ccc(Nc2ccc(NCc3ccccc3)nn2)cc1C,"inconclusive: 18.5 µM [inhibitor, single point]"
22,COc1cccc(Nc2nc(-c3sc(NC(=O)c4ccco4)nc3C)cs2)c1,"inconclusive: 7.38 µM [inhibitor, partial curve, poor fit]"
23,CCN(CC)CCN(C(=O)c1c(F)cccc1F)c1nc2cc(C)cc(C)c2s1,"inconclusive: 18.5 µM [inhibitor, single point]"

row,SMILES,Potency
1,COc1cc(NC(=S)NC2CC(C)(C)NC(C)(C)C2)c(OC)cc1Cl,"inconclusive: 18.5 µM [inhibitor, single point]"
2,COc1cc(/C=C/C(=O)OCC(=O)Nc2c(C)n(C)n(-c3ccccc3)c2=O)cc(OC)c1OC,"inconclusive: 11.7 µM [inhibitor, single point]"
3,Cn1c(=O)c([N+](=O)[O-])c(-n2ccnc2)c2ccccc21,"inconclusive: 18.5 µM [inhibitor, single point]"
4,COc1ccc(OC)c(NC(=O)C(CCSC)NS(=O)(=O)c2cccs2)c1 (configuration not stated),inactive
5,COc1ccc(CNC(=O)C(C)c2ccc([N+](=O)[O-])cc2)cc1 (configuration not stated),"inconclusive: 13.1 µM [inhibitor, single point]"
6,CCOC(=O)C(C)n1cnc2scc(-c3ccc(C)cc3)c2c1=O (configuration not stated),"inconclusive: 9.28 µM [inhibitor, partial curve, poor fit]"
7,Cc1cc(NC(=O)COc2c(C)cccc2C)no1,"inconclusive: 10.4 µM [inhibitor, partial curve]"
8,CC(C)c1ccc(S(=O)(=O)N2CCN(C(=O)C3CC3C)CC2)cc1 (configuration not stated),"inconclusive: 11.7 µM [inhibitor, single point]"
9,Cc1ccc(S(=O)(=O)N2CCC3(CC2)OCCN3S(=O)(=O)c2c(C)cc(C)cc2C)cc1,active: 10.4 µM
10,CC(=O)c1ccc(S(=O)(=O)N2CCN(S(=O)(=O)c3ccccc3C(F)(F)F)CC2)cc1,inactive
11,COc1ccc(C[C@H]2CN3C(=NC[C@H]3Cc3ccccc3)N2CCNC(=O)c2ccc(C)c(Br)c2)cc1,active: 5.22 µM
12,Cc1cc(OCc2cccc(S(=O)(=O)N3CCOCC3)c2)ccc1Cl,"inconclusive: 18.5 µM [inhibitor, single point]"
13,CC(=NCCCO)c1c(O)n(Cc2ccccc2)c(=O)[nH]c1=O,inactive
14,COc1cccc(/C=N/NC(=O)c2cnccn2)c1O,"inconclusive: 18.5 µM [inhibitor, single point]"
15,CCN(c1ccc(C)c(C)c1)S(=O)(=O)c1c(C)[nH]c(=O)[nH]c1=O,inactive
16,C/C(=N\O)c1cc(Cl)ccc1O,inactive
17,CC(C)CC(=O)NC(=S)N(Cc1ccccc1)Cc1ccccc1,inactive
18,CCN1C(=O)[C@H]2[C@@H](c3ccc(OC)cc3)N3C(=O)CN(CCOC)C(=O)[C@@]3(Cc3ccccc3)[C@H]2C1=O,"inconclusive: 0.0026 µM [inhibitor, full curve, poor fit]"
19,COc1ccc2c(c1)OC[C@H]1[C@H]2N2C(=O)c3cc(OC)ccc3NC(=O)[C@@]2(C)[C@H]1c1ccccc1,active: 5.22 µM
20,COc1ccc(/C=C2\CCCc3c2nc2ccc(C)cc2c3C(=O)O)cc1O,inactive
21,CCOC(=O)c1c(C)nc(C)c(C(=O)OCC)c1-c1ccc(OC)cc1,"inconclusive: 8.28 µM [inhibitor, partial curve] and inconclusive: 18.5 µM [inhibitor, single point]"
